The campaign covered roughly 410,000 compounds. About 6,400 (1.6%) were called active. Inconclusive means that the source gave no clear call. Such entries were picked first, then a sample of the others. Calls follow the shape of the dose curve; as a rule, active = well fitted inhibition curve with a large enough effect; inconclusive = small, poorly fitted or top-dose-only effect; inactive = no such curve, though single readings can be large or run the other way. Potencies of inconclusive entries are left out as doubtful fits.
Target: Glucagon-like peptide 1 receptor (Homo sapiens) (UniProt P43220)
UniProt P43220, sequence (P43220 whole entry, looked up): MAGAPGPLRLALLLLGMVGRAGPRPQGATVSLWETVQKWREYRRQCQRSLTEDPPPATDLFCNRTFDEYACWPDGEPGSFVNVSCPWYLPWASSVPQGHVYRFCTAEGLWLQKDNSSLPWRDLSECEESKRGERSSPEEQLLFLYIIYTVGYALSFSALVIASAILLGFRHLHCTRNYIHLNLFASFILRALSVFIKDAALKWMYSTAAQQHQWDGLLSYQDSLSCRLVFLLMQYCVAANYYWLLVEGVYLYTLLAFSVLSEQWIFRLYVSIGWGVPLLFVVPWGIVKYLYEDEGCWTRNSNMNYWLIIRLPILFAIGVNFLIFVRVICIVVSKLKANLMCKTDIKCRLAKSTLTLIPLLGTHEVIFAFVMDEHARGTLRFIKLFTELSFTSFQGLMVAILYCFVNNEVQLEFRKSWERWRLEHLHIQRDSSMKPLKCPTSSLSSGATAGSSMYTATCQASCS
Test: qHTS of GLP-1 Receptor Inverse Agonists (Inhibition Mode); also: nearly all actives have a fitted effect of over 55% in size
Settings: HEK293 GLP-1R CRE-luciferase, luminescence, 24 h, GLP-1R form is constitutively active; series mostly up to 38.3 µM
Outline: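 Using stably transfected HEK293 (constitutively active GLP-1R, cAMP-luciferase reporter), compounds were incubated 24 hr and luciferase measured by luminescence.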
Potency is read from the fitted curve at half-maximal effect; tags tell the direction and shape of the fitted curve.

Row | SMILES | Potency
1 | CCOc1ccc(NC(=S)NN2CCN(C)CC2)cc1 | inactive
2 | CCOC(=O)C1=C(NC(=S)NC(=O)c2ccccc2)c2ccccc2CC1(C)CC (configuration not stated) | active: 5.01 µM
3 | Cc1ccccc1C(=O)Nc1cccc(C(=O)OCc2cc(=O)n3c(C)csc3n2)c1 | inconclusive [inhibitor, single point]
4 | COCCN(CC1CCCN(C2Cc3ccccc3C2)C1)C(=O)c1cccc(C)c1 (configuration not stated) | inconclusive [inhibitor, full curve, poor fit]
5 | COc1ccccc1N(CC(O)COc1ccccc1C)S(=O)(=O)c1ccccc1 (configuration not stated) | inconclusive [inhibitor, single point]
6 | Cc1ccc2nc3n(c(=O)c2c1)-c1cc2ccccc2cc1C(=O)NC3Cc1ccc(O)cc1 (configuration not stated) | inconclusive [inhibitor, full curve, poor fit]
7 | CC(=O)Nc1ccc2nc(CN3CCN(CC(C)C)C(CCO)C3)ccc2c1 (configuration not stated) | inactive
8 | COc1ccc(N2CCN(C(=O)CCc3ccc(S(=O)(=O)NCC(C)C)cc3)CC2)cc1 | inconclusive [inhibitor, partial curve]
9 | COc1cc(C(=O)Nc2ccc(C(F)(F)F)cc2)ccc1OCC(=O)N1CCOCC1 | inconclusive [inhibitor, partial curve, poor fit]
10 | CCN(CC1COc2ccccc2O1)C(=O)CN1C(=O)NC(C)(c2ccc(C)cc2)C1=O (configuration not stated) | inconclusive [inhibitor, partial curve, poor fit]
11 | CCN(CC)CCN(C(=O)C1CCCCC1)c1nc2cc3c(cc2s1)OCO3 | inconclusive [inhibitor, single point]
12 | CC1CCc2c(sc(N)c2C(=O)OC(C)C)C1 (configuration not stated) | inconclusive [inhibitor, single point]
13 | Cc1ccc(NS(=O)(=O)c2ccc(C(=O)NCC(c3ccco3)N(C)C)cc2)cc1 (configuration not stated) | inconclusive [inhibitor, partial curve, poor fit]
14 | CCOC(=O)c1cccc(NC(=O)C2CCN(S(=O)(=O)c3c(C)noc3/C=C/c3ccc(C)cc3)CC2)c1 | inconclusive [inhibitor, full curve, poor fit]
15 | CCOc1ccc(/C=N/NC(=S)NC2CC3CCC2C3)cc1 (configuration not stated) | inconclusive [inhibitor, single point]
16 | C=CC1CN(C(=O)OCC(Cl)(Cl)Cl)C2CC3c4ccc(OC)cc4NC3C3CC1C2CO3 (configuration not stated) | inconclusive [inhibitor, single point]
17 | CCCSc1ccc([C@@H]2[C@@H]3C(=O)N(CC)C(=O)[C@@H]3[C@]3(C(=O)OC)CCCCN23)cc1 | inconclusive [inhibitor, partial curve, poor fit]
18 | C=CCn1c(SCC(=O)NCCO)nc2sc(C)c(C)c2c1=O | inactive
19 | CC1CCC(NC(=O)c2nn(C)c3c2CS(=O)(=O)c2ccccc2-3)CC1 (configuration not stated) | inconclusive [inhibitor, partial curve]
20 | N#CCC(=O)Nc1ccc(C(=O)OCC(=O)C23CC4CC(CC(C4)C2)C3)cc1 | inconclusive [inhibitor, partial curve, poor fit]
21 | O=C(NCCc1ccc(C(F)(F)F)cc1)C1COc2ccccc2O1 (configuration not stated) | inconclusive [inhibitor, single point]

Row | SMILES | Potency
22 | N#Cc1nc(COc2ccc(-c3ccccc3)cc2)oc1NCc1cccnc1 | inconclusive [inhibitor, single point]
23 | Cc1cc(Cl)ccc1OC(C)C(=O)NN=C1CCCCCC1 (configuration not stated) | inconclusive [inhibitor, single point]
24 | Cc1ccc(OCC(=O)NC(=S)Nc2ccccn2)c(Br)c1 | inactive
25 | COc1ccc(Cl)cc1NC(=S)N(Cc1ccccc1C)CC1CCC(C(=O)O)CC1 (configuration not stated) | inconclusive [inhibitor, partial curve, poor fit]
26 | CN(Cc1ccccc1OCCO)CC1CCCN(CCc2ccc(Cl)cc2)C1 (configuration not stated) | inconclusive [inhibitor, partial curve, poor fit]
27 | COC(=O)c1ccccc1NC(=O)c1sc2nc(C)cc(C)c2c1NC(=O)c1ccccc1Cl | inactive
28 | Cc1ccc(N2C(=O)C(F)(F)C2c2ccccc2)cc1 (configuration not stated) | inconclusive [inhibitor, single point]
29 | CC(=O)C[C@H]1c2cc(C(F)(F)F)ccc2S(=O)(=O)N1C1CCCCC1 | inconclusive [inhibitor, single point]
30 | CC(C)C[C@H]1CN=C(Nc2ccccc2)N1CCC1CCCC1 | inconclusive [inhibitor, single point]
31 | CCOc1ccc2[nH]c(=O)c(CN(Cc3cccnc3)C(=O)Nc3ccccc3OC)cc2c1 | inactive
32 | CCOC(=O)c1c(NC(=O)Cc2cccs2)sc(C(=O)NC2CCCCC2)c1C | inactive
33 | Cc1ccc(C(=O)N2CCN(S(=O)(=O)c3ccc(C(C)C)cc3)CC2)s1 | inconclusive [inhibitor, partial curve]
34 | O=C(N/N=C/c1ccccc1)c1n[nH]c2c1CCCC2 | inconclusive [inhibitor, partial curve, poor fit]
35 | O=C(CSc1nccn1Cc1ccc(F)cc1)Nc1ccc(F)cc1F | inconclusive [inhibitor, single point]
36 | Cc1ccc(C)c(OCc2cc(C(=O)N3C[C@@H](C)O[C@@H](C)C3)no2)c1 | inconclusive [inhibitor, partial curve, poor fit]
37 | CCOC(=O)N/N=C\c1ccc([N+](=O)[O-])o1 | inactive
38 | Cc1cccc(-c2nc3c4ccccc4n(CC(=O)Nc4cccc(F)c4)c(=O)n3n2)c1 | inconclusive [inhibitor, single point]
39 | CC(C)S(=O)(=O)c1csc(NC(=O)Nc2ccc(Cl)cc2)c1 | inconclusive [inhibitor, partial curve, poor fit]
40 | COC(=O)c1ccc2nc(-c3cccc(Br)c3)c(Cc3ccsc3)n2c1 | inconclusive [inhibitor, single point]
41 | COc1cccc2cc(CC(=O)c3cc(C)ccc3C)c(=O)oc12 | inconclusive [inhibitor, single point]
42 | Cc1ccccc1-c1nc(CS(=O)(=O)CC(=O)Nc2c(C)cccc2C)c(C)o1 | inactive

Row | SMILES | Potency
43 | Cn1cccc1CC(=O)N/N=C/c1ccc(C(C)(C)C)cc1 | inconclusive [inhibitor, single point]
44 | C=CCn1cc(/C=N/N2C(=O)C3C4C=CC(C4)C3C2=O)c2ccccc21 (configuration not stated) | inconclusive [inhibitor, partial curve, poor fit]
45 | Cc1ccc(CN2C(=O)C(C)Oc3ccccc32)cc1 (configuration not stated) | inconclusive [inhibitor, single point]
46 | CCOc1ccccc1N(C)C(=O)c1cc(S(=O)(=O)NCc2ccc(C)cc2)ccc1F | inconclusive [inhibitor, partial curve, poor fit]
47 | CCc1cccc(NC(=O)Cn2c(=O)n(Cc3ccccc3)c(=O)c3c(C)c(C(=O)N(C)C)sc32)c1 | inconclusive [inhibitor, single point]
48 | COc1ccc(Br)cc1/C=c1\sc2nc(-c3ccco3)nn2c1=O | inactive
49 | O=[N+]([O-])c1ccc(N2CCN(S(=O)(=O)c3ccccc3)CC2)cc1NCCN1CCOCC1 | inconclusive [inhibitor, single point]
50 | O=C(NCCC1CCCCN1S(=O)(=O)c1ccccc1)C(=O)NCc1ccccn1 (configuration not stated) | inactive
51 | CC(OC(=O)Cc1c[nH]c2ccccc12)C(=O)NC1CCCCC1C (configuration not stated) | inconclusive [inhibitor, single point]
52 | O=C(Nc1ccc2nc3n(c(=O)c2c1)CCCC3)c1cc([N+](=O)[O-])ccc1F | inconclusive [inhibitor, partial curve, poor fit]
53 | O=C(CSCc1ccc(Cl)cc1)Nc1cc([N+](=O)[O-])ccc1O | inconclusive [inhibitor, single point]
54 | Cc1ccc(N/N=C/c2ccncc2)cc1 | inconclusive [inhibitor, full curve, poor fit]
55 | CC(C)c1ccc2[nH]c(O)c(N=NC(=S)NCCc3ccccc3)c2c1 | inconclusive [inhibitor, single point]
56 | COc1ccc(NC(NC(=O)c2ccc(OC)cc2)C(Cl)(Cl)Cl)cc1 (configuration not stated) | inconclusive [inhibitor, single point]
57 | C/C(=N\NC(=S)NC1CCCCC1)c1cccs1 | inconclusive [inhibitor, partial curve, poor fit]
58 | CC1(c2ccccc2)CC(c2ccccc2)=Nc2nonc2N1 (configuration not stated) | inconclusive [inhibitor, single point]
59 | O=C(Cn1c2ncccc2c(=O)n1-c1ccccc1)Nc1cccc(C(F)(F)F)c1 | inconclusive [inhibitor, single point]
60 | CC1(C)CC(=O)c2c(oc3ccc(NS(=O)(=O)c4cccc5cccnc45)cc23)C1 | inconclusive [inhibitor, single point]
61 | COc1ccc(NC(=O)CN2CCN(c3nc(-c4ccc(F)cc4)cs3)CC2)c(OC)c1 | inconclusive [inhibitor, single point]
62 | CCOC(=O)C1CCN(C2=C(NS(=O)(=O)c3ccc(Cl)cc3)C(=O)c3ccccc3C2=O)CC1 | inconclusive [inhibitor, single point]
